The whole screen tested about 410,000 compounds, of which about 6,400 (1.6%) were called active. The inconclusive results got no clear call from the source; some entries with a clear call stand among them for comparison. The call rests on the fitted dose curve; in most records, active means well fitted inhibition curve with a large enough effect; inconclusive means small, poorly fitted or top-dose-only effect; inactive means no such curve, though single readings can be large or run the other way. No potency is given beside an inconclusive call; the fits are too rough.
The molecules below were run against Glucagon-like peptide 1 receptor (Homo sapiens) (UniProt P43220) (assay: qHTS of GLP-1 Receptor Inverse Agonists (Inhibition Mode)). Conditions: HEK293 GLP-1R CRE-luciferase, luminescence, 24 h; Potency: GLP-1R form is constitutively active unless noted; activity change, negative = inhibition: at 38.3 µM (top of the series) unless noted.
Chain of UniProt P43220 (P43220 whole entry, looked up): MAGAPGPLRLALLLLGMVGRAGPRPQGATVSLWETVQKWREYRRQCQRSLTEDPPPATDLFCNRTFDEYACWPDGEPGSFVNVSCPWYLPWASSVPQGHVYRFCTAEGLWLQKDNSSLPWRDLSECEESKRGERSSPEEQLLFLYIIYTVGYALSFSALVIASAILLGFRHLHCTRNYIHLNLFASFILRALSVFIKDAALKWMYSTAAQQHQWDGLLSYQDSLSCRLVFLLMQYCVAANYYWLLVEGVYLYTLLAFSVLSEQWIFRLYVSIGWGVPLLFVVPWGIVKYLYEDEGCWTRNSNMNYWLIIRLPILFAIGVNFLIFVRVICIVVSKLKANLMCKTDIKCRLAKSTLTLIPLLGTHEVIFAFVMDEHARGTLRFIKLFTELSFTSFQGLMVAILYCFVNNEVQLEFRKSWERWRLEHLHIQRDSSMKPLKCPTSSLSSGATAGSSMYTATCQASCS
Procedure, shortened: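 qHTS in 1536-well format: reporter HEK293 cells expressing constitutive GLP-1R activity in DMEM + 10% Nu serum, 24 hr with compounds at 37 deg C, luminescence read after 12 min with detection reagent.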
`Nc1ccc(C2(c3ccc(N)cc3)CCCCC2)cc1` was tested, and the Potency was inconclusive [inhibitor, partial curve].
With `Cc1ccc2c(c1)CNc1ccccc1O2` the Potency was inconclusive [inhibitor, single point].
`O=C(Cn1c(=O)oc2cc(S(=O)(=O)N3CCc4ccccc43)ccc21)NC1CCCC1` was tested, and the Potency was inconclusive [inhibitor, partial curve, poor fit].
For `CCn1c(C)nc2cc(S(=O)(=O)Nc3ccc(C)cc3)ccc21`, the Potency was inconclusive [inhibitor, single point].
In the case of `COc1ccc(-c2cc(-c3ccccc3)[n+](C)c(-c3ccccc3)c2)cc1`, the Potency is reported as inconclusive [inhibitor, full curve].
In the case of `O=C(c1ccc2c(c1)OCO2)C1CCCN(Cc2ccccn2)C1` (configuration not stated), the Potency is reported as inconclusive [inhibitor, partial curve].
With `CC(C)COC(=O)n1c(=O)oc2cc(S(=O)(=O)N3CCCCC3)ccc21` the Potency was inconclusive [inhibitor, single point].
In the case of `Cc1ncc(CN2CCCC(C(=O)c3ccc(C(C)(C)C)cc3)C2)s1` (configuration not stated), the Potency is reported as inconclusive [inhibitor, full curve].
With `CN1CC(C(=O)c2ccc(Cl)cc2)C(c2ccc(Cl)cc2Cl)C1` (configuration not stated) the Potency was active: 8.91 µM [setting not given].
In the case of `CCOC(=O)C1(CCOc2ccccc2)CCN(C(C)CSC)CC1` (configuration not stated), the Potency is reported as inconclusive [inhibitor, partial curve, poor fit].
For `COc1ccc(OC)c(CCNCc2c(C(=O)O)c(C)n(Cc3ccc(F)cc3Cl)c2C)c1`, the “activity change, negative = inhibition” value was inactive: -28.5%.
For `O=C(NCC(c1ccco1)N1CCCC1)c1cccc(S(=O)(=O)N2CCc3ccccc32)c1` (configuration not stated), the Potency was inconclusive [inhibitor, partial curve, poor fit].
`CCOC(=O)[C@]12Cc3ccccc3[C@H]1N(Cc1ccccc1)C(=O)c1cc(OC)ccc12` was tested, and the Potency was inconclusive [inhibitor, single point].
For `COc1ccc(C(=O)C23CN4CN(CN(C4)C2)C3)cc1`, the activity change, negative = inhibition was inactive: -15.6% [at 7.66 µM, GLP-1R form is constitutively active].
For `COc1ccc(CCNC(=O)c2ccc3c(c2)N(Cc2cccc(Cl)c2)C(=O)CS3)cc1OC`, the Potency was inconclusive [inhibitor, single point].
With `CC12CCC(=O)C=C1CCC1C2CCC2(C)C(O)(C(=O)CO)CCC12O` (configuration not stated) the “activity change, negative = inhibition” value was inactive: 0.606%.
`CCCC1=Nc2cc(C(=O)NCCc3ccc(OC)cc3OC)ccc2Sc2ccccc21` was tested, and the Potency was inconclusive [inhibitor, partial curve, poor fit].

Source: PubChem BioAssay AID624417 (National Center for Advancing Translational Sciences (NCATS), 2012)
Further: nearly all actives have a fitted effect of over 55% in size.
On the % scale 0 is the no-effect control and ±100 the full control effect; potency means the concentration at half of the fitted maximal effect; tags describe the fitted curve by direction and shape.
